In the supplement of paper PMC9588766:
Structures can show the parent of a compound that is named as a salt. The full ranking holds about 1,900 compounds; the median of “cell viability of compound + 1 nM pemigatinib relative to pemigatinib-only (DMSO) wells” is about 0.95, and the lowest 2% start at about 0.22. The list shows a part of the results.

test system: PDC-DUC18828; experiment: cell viability of compound + 1 nM pemigatinib relative to pemigatinib-only (DMSO) wells (fraction); PDC-DUC18828 is a patient-derived cholangiocarcinoma cell line; higher = less growth inhibition; settings: first compound 1 µM; pemigatinib concentration 1 nM; 72 h
Protocol: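 Selleck Bioactive library screen in the patient-derived FGFR2 fusion-positive ICC cell line PDC-DUC18828 (500 cells/well). Each compound was tested at 1 uM with 1 nM pemigatinib, in triplicate, for 72 h. Viability was read by CellTiter-Glo and normalised to plate DMSO controls. Value is the paper's averaged normalised viability.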

Point of comparison: Nc1ncnc2c1nc(Br)n2[C@@H]1O[C@@H]2COP(=O)(O)O[C@H]2[C@H]1O [8-Bromo-cAMP] + CCN1C(=O)N(c2c(F)c(OC)cc(OC)c2F)Cc2cnc3[nH]c(CN4CCOCC4)cc3c21 [pemigatinib], cell viability 1.01. Against it:
- CCCc1nc2c(C)cc(-c3nc4ccccc4n3C)cc2n1Cc1ccc(-c2ccccc2C(=O)O)cc1 [Telmisartan] + CCN1C(=O)N(c2c(F)c(OC)cc(OC)c2F)Cc2cnc3[nH]c(CN4CCOCC4)cc3c21 [pemigatinib] — higher, 1.02
- CCCCC1C(=O)N(c2ccccc2)N(c2ccccc2)C1=O [Phenylbutazone] + CCN1C(=O)N(c2c(F)c(OC)cc(OC)c2F)Cc2cnc3[nH]c(CN4CCOCC4)cc3c21 [pemigatinib] — lower, 0.972
- COc1cc2ncnc(Nc3ccc(F)c(Cl)c3)c2cc1NC(=O)/C=C/CN1CCCCC1 + CCN1C(=O)N(c2c(F)c(OC)cc(OC)c2F)Cc2cnc3[nH]c(CN4CCOCC4)cc3c21 [pemigatinib] — lower, 0.91
- NC(=O)Nc1sc(-c2ccc(F)cc2)cc1C(N)=O + CCN1C(=O)N(c2c(F)c(OC)cc(OC)c2F)Cc2cnc3[nH]c(CN4CCOCC4)cc3c21 [pemigatinib] — lower, 0.85
- CC(C)(C)OC(=O)N[C@H]1CCCCC/C=C\[C@@H]2C[C@@]2(C(=O)NS(=O)(=O)C2CC2)NC(=O)[C@@H]2C[C@@H](OC(=O)N3Cc4cccc(F)c4C3)CN2C1=O [Danoprevir (ITMN-191)] + CCN1C(=O)N(c2c(F)c(OC)cc(OC)c2F)Cc2cnc3[nH]c(CN4CCOCC4)cc3c21 [pemigatinib] — higher, 1.06
- N=C(N)c1ccc(N=NNc2ccc(C(=N)N)cc2)cc1 [Diminazene Aceturate] + CCN1C(=O)N(c2c(F)c(OC)cc(OC)c2F)Cc2cnc3[nH]c(CN4CCOCC4)cc3c21 [pemigatinib] — lower, 0.895
- C[C@H](CCC(=O)O)[C@H]1CC[C@H]2[C@@H]3C[C@H](O)[C@@H]4C[C@H](O)CC[C@]4(C)[C@H]3CC[C@]12C [Hyodeoxycholic acid (HDCA)] + CCN1C(=O)N(c2c(F)c(OC)cc(OC)c2F)Cc2cnc3[nH]c(CN4CCOCC4)cc3c21 [pemigatinib] — lower, 0.973
- CN1[C@@H]2CC[C@H]1C[C@@H](OC(c1ccccc1)c1ccccc1)C2 [Benztropine mesylate] + CCN1C(=O)N(c2c(F)c(OC)cc(OC)c2F)Cc2cnc3[nH]c(CN4CCOCC4)cc3c21 [pemigatinib] — lower, 0.887
- Cc1nn(C)c(COc2ccc(N3CCN(S(=O)(=O)N(C)C)CC3)cc2)c1-c1cccc2c(CCCOc3cccc4ccccc34)c(C(=O)O)n(CCN3CCOCC3)c12 + CCN1C(=O)N(c2c(F)c(OC)cc(OC)c2F)Cc2cnc3[nH]c(CN4CCOCC4)cc3c21 [pemigatinib] — lower, 0.984
- CCCC(=O)Nc1ccc(OCC(O)CNC(C)C)c(C(C)=O)c1 (configuration not stated) [Acebutolol HCl] + CCN1C(=O)N(c2c(F)c(OC)cc(OC)c2F)Cc2cnc3[nH]c(CN4CCOCC4)cc3c21 [pemigatinib] — lower, 0.931
- C[C@@H]1O[C@@H](OC[C@H]2O[C@@H](Oc3c(-c4ccc(O)c(O)c4)oc4cc(O)cc(O)c4c3=O)[C@H](O)[C@@H](O)[C@@H]2O)[C@H](O)[C@H](O)[C@H]1O [Rutin] + CCN1C(=O)N(c2c(F)c(OC)cc(OC)c2F)Cc2cnc3[nH]c(CN4CCOCC4)cc3c21 [pemigatinib] — higher, 1.02
- Nc1nccc2c1ncn2C1C=C(CO)C(O)C1O (configuration not stated) [3-Deazaneplanocin A (DZNeP)] + CCN1C(=O)N(c2c(F)c(OC)cc(OC)c2F)Cc2cnc3[nH]c(CN4CCOCC4)cc3c21 [pemigatinib] — lower, 0.668
- Cc1nc(N(C)C(=O)Cc2ccc(-c3ccccn3)cc2)sc1S(N)(=O)=O [Pritelivir (BAY 57-1293)] + CCN1C(=O)N(c2c(F)c(OC)cc(OC)c2F)Cc2cnc3[nH]c(CN4CCOCC4)cc3c21 [pemigatinib] — lower, 0.907
- Cn1cc(/C=C/C(=O)c2cccc(F)c2)cc1/C=C/C(=O)NO + CCN1C(=O)N(c2c(F)c(OC)cc(OC)c2F)Cc2cnc3[nH]c(CN4CCOCC4)cc3c21 [pemigatinib] — higher, 1.03
- C/C(O)=C(\C#N)C(=O)Nc1ccc(C(F)(F)F)cc1 [Teriflunomide] + CCN1C(=O)N(c2c(F)c(OC)cc(OC)c2F)Cc2cnc3[nH]c(CN4CCOCC4)cc3c21 [pemigatinib] — lower, 0.943
- COc1nc(C)cnc1NS(=O)(=O)c1cccnc1-c1ccc(-c2nnco2)cc1 [Zibotentan (ZD4054)] + CCN1C(=O)N(c2c(F)c(OC)cc(OC)c2F)Cc2cnc3[nH]c(CN4CCOCC4)cc3c21 [pemigatinib] — higher, 1.05
- C[C@@H]1O[C@@H](O[C@H]2[C@H](Oc3cc(O)c4c(c3)O[C@H](c3ccc(O)cc3)CC4=O)O[C@H](CO)[C@@H](O)[C@@H]2O)[C@H](O)[C@H](O)[C@H]1O [Naringin] + CCN1C(=O)N(c2c(F)c(OC)cc(OC)c2F)Cc2cnc3[nH]c(CN4CCOCC4)cc3c21 [pemigatinib] — lower, 0.934
- N[C@@H](CC(=O)N1CCn2c(nnc2C(F)(F)F)C1)Cc1cc(F)c(F)cc1F [Sitagliptin phosphate monohydrate] + CCN1C(=O)N(c2c(F)c(OC)cc(OC)c2F)Cc2cnc3[nH]c(CN4CCOCC4)cc3c21 [pemigatinib] — lower, 0.891
- C[C@H]1COC2(CCN(c3nc(=O)c4cc(C(F)(F)F)cc([N+](=O)[O-])c4s3)CC2)O1 (racemic) [BTZ043 Racemate] + CCN1C(=O)N(c2c(F)c(OC)cc(OC)c2F)Cc2cnc3[nH]c(CN4CCOCC4)cc3c21 [pemigatinib] — lower, 0.983
- Oc1ccc(Cc2nc3c(Cc4ccccc4)nc(-c4ccc(O)cc4)cn3c2O)cc1 [Coelenterazine] + CCN1C(=O)N(c2c(F)c(OC)cc(OC)c2F)Cc2cnc3[nH]c(CN4CCOCC4)cc3c21 [pemigatinib] — lower, 0.872
- CC1(C)CC(=O)c2c(C(F)(F)F)nn(-c3ccc(C(N)=O)c(N[C@H]4CC[C@H](OC(=O)CN)CC4)c3)c2C1 + CCN1C(=O)N(c2c(F)c(OC)cc(OC)c2F)Cc2cnc3[nH]c(CN4CCOCC4)cc3c21 [pemigatinib] — lower, 0.31
